# Assay results: the supplement of paper PMC8728848
# The other results are listed elsewhere or left out.
# What was measured:
# Test in all cases: glycan array binding signal (z-score within array); higher = stronger binding
# Conditions in all cases: glycan notation: IUPAC condensed, linker removed
# [1] = molecular target: Fuc(a1-2)[GalNAc(a1-3)]Gal(b1-4)[Fuc(a1-3)]GlcNAc
# Procedure, shortened: (§1)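 Negative Z-scores can be read as non-binding. The Z-score is calculated within each array and then averaged across arrays of one protein sequence at different concentrations or buffers and across linkers. Arrays, 3228 in all, were curated from the Consortium for Functional Glycomics database and kept only where the protein sequence was available.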
# [2] = molecular target: Fuc(a1-2)[GalNAc(a1-4)]Gal(b1-4)GlcNAc
# Procedure, shortened: as §1
# [3] = molecular target: Fuc(a1-2)[GalNAc(b1-3)]Gal
# Procedure, shortened: as §1
# Fuc(a1-3)GlcNAc = molecular target: Fuc(a1-3)GlcNAc
# Procedure, shortened: as §1
# [4] = molecular target: Fuc(a1-3)[Gal(b1-4)]Glc6S
# Procedure, shortened: as §1
# [5] = molecular target: Fuc(a1-3)[Gal(b1-4)]GlcNAc
# Procedure, shortened: as §1
# [6] = molecular target: Fuc(a1-3)[Gal(b1-4)]GlcNAc(b1-2)Man(a1-3)[Fuc(a1-3)[Gal(b1-4)]GlcNAc(b1-2)Man(a1-6)]Man(b1-4)GlcNAc(b1-4)GlcNAc
# Procedure, shortened: as §1
# [7] = molecular target: Fuc(a1-3)[Gal(b1-4)]GlcNAc(b1-2)Man(a1-6)[Gal(b1-4)GlcNAc(b1-2)Man(a1-3)]Man(b1-4)GlcNAc(b1-4)GlcNAc
# Procedure, shortened: as §1
# [8] = molecular target: Fuc(a1-3)[Gal(b1-4)]GlcNAc(b1-3)Gal(b1-3)[Fuc(a1-4)]GlcNAc
# Procedure, shortened: as §1
# [9] = molecular target: Fuc(a1-3)[Gal(b1-4)]GlcNAc(b1-4)Gal(b1-4)[Fuc(a1-3)]GlcNAc
# Procedure, shortened: as §1
# [10] = molecular target: Fuc(a1-3)[Gal(b1-4)]GlcNAc(b1-4)Gal(b1-4)[Fuc(a1-3)]GlcNAc(b1-4)Gal(b1-4)[Fuc(a1-3)]GlcNAc
# Procedure, shortened: as §1
# [11] = molecular target: Fuc(a1-3)[Gal(b1-4)]GlcNAc6S
# Procedure, shortened: as §1
# [12] = molecular target: Fuc(a1-3)[Gal3S(b1-4)]Glc6S
# Procedure, shortened: as §1
# [13] = molecular target: Fuc(a1-3)[Gal3S(b1-4)]GlcNAc
# Procedure, shortened: as §1
# [14] = molecular target: Fuc(a1-3)[Gal3S(b1-4)]GlcNAc6S
# Procedure, shortened: as §1
# [15] = molecular target: Fuc(a1-3)[GalNAc(b1-4)]GlcNAc
# Procedure, shortened: as §1
# Fuc(a1-4)GlcNAc = molecular target: Fuc(a1-4)GlcNAc
# Procedure, shortened: as §1
# Fuc(b1-3)GlcNAc = molecular target: Fuc(b1-3)GlcNAc
# Procedure, shortened: as §1
# Gal(a1-2)Gal = molecular target: Gal(a1-2)Gal
# Procedure, shortened: as §1
# Gal(a1-3)Gal = molecular target: Gal(a1-3)Gal
# Procedure, shortened: as §1
# Gal(a1-3)Gal(b1-3)GlcNAc = molecular target: Gal(a1-3)Gal(b1-3)GlcNAc
# Procedure, shortened: as §1
# Gal(a1-3)Gal(b1-4)Glc = molecular target: Gal(a1-3)Gal(b1-4)Glc
# Procedure, shortened: as §1
# Gal(a1-3)Gal(b1-4)GlcNAc = molecular target: Gal(a1-3)Gal(b1-4)GlcNAc
# Procedure, shortened: as §1
# [16] = molecular target: Gal(a1-3)Gal(b1-4)[Fuc(a1-3)]GlcNAc
# Procedure, shortened: as §1
# Gal(a1-3)GalNAc = molecular target: Gal(a1-3)GalNAc
# Procedure, shortened: as §1
# [17] = molecular target: Gal(a1-3)[Gal(a1-4)]Gal(b1-4)GlcNAc
# Procedure, shortened: as §1
# Gal(a1-4)Gal(b1-4)Glc = molecular target: Gal(a1-4)Gal(b1-4)Glc
# Procedure, shortened: as §1
# Gal(a1-4)Gal(b1-4)GlcNAc = molecular target: Gal(a1-4)Gal(b1-4)GlcNAc
# Procedure, shortened: as §1
# Gal(a1-4)GlcNAc = molecular target: Gal(a1-4)GlcNAc
# Procedure, shortened: as §1
# Gal(a1-6)Glc = molecular target: Gal(a1-6)Glc
# Procedure, shortened: as §1
# Gal(b1-2)Gal = molecular target: Gal(b1-2)Gal
# Procedure, shortened: as §1
# Gal(b1-3)Gal = molecular target: Gal(b1-3)Gal
# Procedure, shortened: as §1
# Gal(b1-3)Gal(b1-4)GlcNAc = molecular target: Gal(b1-3)Gal(b1-4)GlcNAc
# Procedure, shortened: as §1
# Gal(b1-3)GalNAc = molecular target: Gal(b1-3)GalNAc
# Procedure, shortened: as §1
# [18] = molecular target: Gal(b1-3)GalNAc(b1-3)Gal(a1-4)Gal(b1-4)Glc
# Procedure, shortened: as §1
# [19] = molecular target: Gal(b1-3)GalNAc(b1-4)Gal(b1-4)Glc
# Procedure, shortened: as §1
# [20] = molecular target: Gal(b1-3)GalNAc(b1-4)[Neu5Ac(a2-3)]Gal(b1-4)Glc
# Procedure, shortened: as §1
# Gal(b1-3)GlcNAc = molecular target: Gal(b1-3)GlcNAc
# Procedure, shortened: as §1
# [21] = molecular target: Gal(b1-3)GlcNAc(b1-2)Man(a1-3)[Gal(b1-3)GlcNAc(b1-2)Man(a1-6)]Man(b1-4)GlcNAc(b1-4)GlcNAc
# Procedure, shortened: as §1
# [22] = molecular target: Gal(b1-3)GlcNAc(b1-3)Gal(b1-3)GlcNAc
# Procedure, shortened: as §1
# [23] = molecular target: Gal(b1-3)GlcNAc(b1-3)Gal(b1-4)Glc
# Procedure, shortened: as §1
# [24] = molecular target: Gal(b1-3)GlcNAc(b1-3)Gal(b1-4)GlcNAc
# Procedure, shortened: as §1
# [25] = molecular target: Gal(b1-3)[Fuc(a1-4)]GlcNAc
# Procedure, shortened: as §1
# [26] = molecular target: Gal(b1-3)[Fuc(a1-4)]GlcNAc(b1-3)Gal(b1-3)[Fuc(a1-4)]GlcNAc
# Procedure, shortened: as §1
# [27] = molecular target: Gal(b1-3)[Fuc(a1-4)]GlcNAc(b1-3)Gal(b1-4)GlcNAc
# Procedure, shortened: as §1
binder,measurement,setting,value
"Angptl4 (Homo sapiens), Q9BY76 (protein) MSGAPTAGAALMLCAATAVLLSAQGGPVQSKSPRFASWDEMNVLAHGLLQLGQGLREHAERTRSQLSALERRLSACGSACQGTEGSTDLPLAPESRVDPEVLHSLQTQLKAQNSRIQQLFHKVAQQQRHLEKQHLRIQHLQSQFGLLDHKHLDHEVAKPARRKRLPEMAQPVDPAHNVSRLHRLPRDCQELFQVGERQSGLFEIQPQGSPPFLVNCKMTSDGGWTVIQRRHDGSVDFNRPWEAYKAGFGDPHGEFWLGLEKVHSITGDRNSRLAVQLRDWDGNAELLQFSVHLGGEDTAYSLQLTAPVAGQLGATTVPPSGLSVPFSTWDQDHDLRRDKNCAKSLSGGWWFGTCSHSNLNGQYFRSIPQQRQKLKKGIFWKTWRGRYYPLQATTMLIQPMAAEAAS",glycan array binding signal (z-score),[1],0.505
same,glycan array binding signal (z-score),[2],0.077
same,glycan array binding signal (z-score),[3],-0.203
same,glycan array binding signal (z-score),Fuc(a1-3)GlcNAc,-0.446
same,glycan array binding signal (z-score),[4],0.018
same,glycan array binding signal (z-score),[5],-0.053
same,glycan array binding signal (z-score),[6],0.691
same,glycan array binding signal (z-score),[7],2.57
same,glycan array binding signal (z-score),[8],-0.371
same,glycan array binding signal (z-score),[9],0.1
same,glycan array binding signal (z-score),[10],0.218
same,glycan array binding signal (z-score),[11],-0.527
same,glycan array binding signal (z-score),[12],-0.178
same,glycan array binding signal (z-score),[13],-0.009
same,glycan array binding signal (z-score),[14],-0.342
same,glycan array binding signal (z-score),[15],-0.127
same,glycan array binding signal (z-score),Fuc(a1-4)GlcNAc,2.27
same,glycan array binding signal (z-score),Fuc(b1-3)GlcNAc,-0.413
same,glycan array binding signal (z-score),Gal(a1-2)Gal,0.359
same,glycan array binding signal (z-score),Gal(a1-3)Gal,-0.247
same,glycan array binding signal (z-score),Gal(a1-3)Gal(b1-3)GlcNAc,-0.164
same,glycan array binding signal (z-score),Gal(a1-3)Gal(b1-4)Glc,-0.187
same,glycan array binding signal (z-score),Gal(a1-3)Gal(b1-4)GlcNAc,-0.076
same,glycan array binding signal (z-score),[16],-0.522
same,glycan array binding signal (z-score),Gal(a1-3)GalNAc,0.668
same,glycan array binding signal (z-score),[17],-0.072
same,glycan array binding signal (z-score),Gal(a1-4)Gal(b1-4)Glc,0.89
same,glycan array binding signal (z-score),Gal(a1-4)Gal(b1-4)GlcNAc,-0.437
same,glycan array binding signal (z-score),Gal(a1-4)GlcNAc,-0.052
same,glycan array binding signal (z-score),Gal(a1-6)Glc,0.889
same,glycan array binding signal (z-score),Gal(b1-2)Gal,-0.226
same,glycan array binding signal (z-score),Gal(b1-3)Gal,0.531
same,glycan array binding signal (z-score),Gal(b1-3)Gal(b1-4)GlcNAc,-0.343
same,glycan array binding signal (z-score),Gal(b1-3)GalNAc,-0.105
same,glycan array binding signal (z-score),[18],-0.406
same,glycan array binding signal (z-score),[19],-0.477
same,glycan array binding signal (z-score),[20],-0.174
same,glycan array binding signal (z-score),Gal(b1-3)GlcNAc,-0.049
same,glycan array binding signal (z-score),[21],1.19
same,glycan array binding signal (z-score),[22],-0.33
same,glycan array binding signal (z-score),[23],-0.463
same,glycan array binding signal (z-score),[24],-0.235
same,glycan array binding signal (z-score),[25],-0.48
same,glycan array binding signal (z-score),[26],0.865
same,glycan array binding signal (z-score),[27],-0.58
